Molecules are shown by their SMILES. Values joined by “and” are separate entries in the source; they are usually repeats but may differ in a detail not shown here. Equal values may be shown once. Hit rate of the full screen: of about 48,000 compounds, about 1,200 (2.5%) were called active. Inconclusive results (about 2%) are left out.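 Rule for the calls: active = activation of at least 60% and not above a set upper limit (about 1 call in 100 departs from these limits); inconclusive = activation of 40% to 60%, or above that upper limit; inactive = activation under 40%.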 The list shows a part of the results.

Chain of UniProt O75388 (O75388 whole entry, looked up): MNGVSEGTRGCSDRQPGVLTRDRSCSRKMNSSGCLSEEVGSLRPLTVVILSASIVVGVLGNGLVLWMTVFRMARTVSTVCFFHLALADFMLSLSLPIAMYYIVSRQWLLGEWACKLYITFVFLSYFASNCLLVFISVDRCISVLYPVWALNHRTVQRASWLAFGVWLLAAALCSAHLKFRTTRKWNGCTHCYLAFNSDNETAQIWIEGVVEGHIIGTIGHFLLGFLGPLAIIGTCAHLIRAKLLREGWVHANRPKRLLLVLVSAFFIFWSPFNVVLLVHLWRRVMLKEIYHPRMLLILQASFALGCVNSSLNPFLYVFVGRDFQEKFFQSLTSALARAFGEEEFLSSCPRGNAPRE

The assay addresses Probable G-protein coupled receptor 32 (Homo sapiens) (UniProt O75388). Kind of assay: qHTS for Agonists of Human Resolvin D1 Receptor DRV1. Note: 0% is about no effect. Conditions: CHO-K1 GPR32 beta-arrestin PathHunter luminescence, 90 min; at 76.9 µM; hits give high values; zero percent set by DMSO-only wells. The gist of the method:
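Cells are plated overnight, treated with compounds in DMSO for 90 minutes at 37 °C, and developed with PathHunter detection reagent for 1 hour before luminescence is read; signal reflects beta-arrestin binding to GPR32 in engineered CHO-K1 cells.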
With `Cc1ccc2onc(CC(=O)N3CCN(c4cc(Cl)ccc4C)CC3)c2c1`, the activation was inactive: -29.7%.

Take `Fc1ccc(-c2nn(-c3ccccc3Cl)c3c2cnc2ccccc23)cc1`: the activation was inactive: 6.99%.

In the case of `Cc1ccc(CNC(=O)Cc2c(C)c3c(cc(C)c4c(C)coc43)oc2=O)cc1`, the activation is inactive: -1.54%.

In the case of `COc1cccc(CNC(=O)Cn2ncn3nc(-c4cccs4)cc3c2=O)c1OC`, the activation was inactive: -0.986%.

Consider `COc1ccc(-n2nc(C(=O)N3CCN(c4cccc(C)c4C)CC3)c3c4ccccc4n(C)c3c2=O)cc1Cl`, for which the activation was inactive: -10.3%.

Regarding `COc1ccc(CNC(=O)c2nc(SCc3ccccc3F)ncc2Cl)cc1`, the activation is inactive: -30.5%.

In the case of `O=C(c1ccc2c(c1)N(Cc1ccc(F)cc1)C(=O)c1ccccc1S2(=O)=O)N1CCCC1`, the activation is inactive: -2.89%.

As for `CCC(=O)N1CCCc2cc(S(=O)(=O)N3CCC(C(=O)NC4CCCCC4)CC3)ccc21`, the activation was inactive: -14.6%.

Regarding `COc1ccccc1Cn1c(CNS(=O)(=O)c2ccc(C(C)C)cc2)nc2cccnc21`, the activation was inactive: -30.3%.

For the compound `CC(NC(=O)c1ccc2c(c1)CCN2S(=O)(=O)c1ccccc1)c1ccccc1` (stereo unspecified), the activation was inactive: -22.4%.

Take `Fc1ccccc1Cc1cn2cc(-c3ccc(Cl)cc3)nc2s1`: the activation was active: 68.2%.

Regarding `COc1ccccc1NC(=O)c1oc2ccccc2c1NC(=O)c1cccc(OC)c1OC`, the activation was inactive: -12.1%.

On to `CC(C)(C)OC(=O)N1CCC(c2c(C(=O)NCc3cccc(Cl)c3)cnn2-c2ccc(F)cc2)CC1`, for which the activation was inactive: -17.8%.

As to `CCOc1ccc(CN2CCc3nc(N4CCN(c5ccccc5OC)CC4)ncc3C2)cc1OC`, the activation was inactive: -9.11%.

Consider `O=C(Nc1cc(-c2nc3ccccc3o2)ccc1Cl)c1sc2c([N+](=O)[O-])cccc2c1Cl`, for which the activation is inactive: 2.15%.

Take `CCc1ccccc1NC(=O)CSc1nc(-c2cccc(Cl)c2)nc2c1Cc1c(CO)cnc(C)c1O2`: the activation was inactive: -2.47%.

Consider `COc1cc(/C=C(\C#N)C(=O)NCC2CCCO2)ccc1O` (stereo unspecified), for which the activation was inactive: -0.136%.

On to `O=C(NCCCN1CCCCC1)c1sc2ncccc2c1-n1cccc1`, for which the activation was inactive: -1.98%.

As for `CC1CCN(C(=O)Cn2c(=O)n(CC3CCC(C(=O)NC(C)C)CC3)c(=O)c3sccc32)CC1` (stereo unspecified), the activation is inactive: 1.42%.

As for `CCOC(=O)c1ccc(NC(=O)CC2C(=O)N(c3ccc(F)cc3)C(=O)N2Cc2cccnc2)cc1` (stereo unspecified), the activation was inactive: -8.7%.

For the compound `COc1ccc(-n2c(-c3ccc(C)cc3)cc3c2CC(C)(C)CC3=O)cc1Cl`, the activation is inactive: -8.52%.

Consider `Cc1ccccc1C(=O)Nc1nnc(S(=O)(=O)N(C)Cc2ccccc2)s1`, for which the activation was inactive: -3.44%.

On to `COc1ccc(-c2nc(SCC(=O)NC3CCCC3)c(-c3ccc(F)cc3)[nH]2)cc1`, for which the activation is inactive: -22%.

With `CC(C)c1ccc(Cn2c(COc3ccccc3)nc3ccccc32)cc1`, the activation is inactive: -17.3%.

`CCn1nc(C)c2c(-c3ccccc3)cc(=O)n(C(C)C(=O)NCCC(C)C)c21` (stereo unspecified): the activation is inactive: -1.89%.

On to `COc1ccc(S(=O)(=O)NCC(c2ccco2)S(=O)(=O)c2ccc(C)cc2)cc1F` (stereo unspecified), for which the activation was inactive: -14.4%.

Turning to `Cc1ccc(NC(=O)Cn2nc(C(=O)Nc3ccc(C)cc3)ccc2=O)cc1`, the activation is inactive: -3.33%.

With `CC1CCN(Cc2c(O)ccc3c(=O)c(Oc4ccccc4Cl)c(C(F)(F)F)oc23)CC1`, the activation is inactive: -3.61%.

`COc1ccc(CNS(=O)(=O)c2ccc(N3CCCCS3(=O)=O)cc2)cc1`: the activation is inactive: 15.8%.

`Cc1ccc(C(=O)Nc2ccc3c(c2)n(C)c(=O)c(=O)n3C)cc1`: the activation is inactive: 16.8%.

`CCc1ccc(OC(C)C(=O)N2CCC(c3nc4ccccc4o3)CC2)cc1` (stereo unspecified): the activation is inactive: 23.7%.

In the case of `CC(=O)Nc1ccc(NC(=O)CCc2nc3cccnc3n2Cc2cccs2)cc1`, the activation was inactive: -2.73%.

Regarding `Cc1ccc(NC(=O)Cn2c(=O)n(Cc3nc(-c4ccccc4)no3)c(=O)c3cc4c(cc32)OCO4)cc1F`, the activation was inactive: -1.77%.

Consider `COc1ccc(NC(=O)CC2C(=O)N(c3cccc(OC)c3)C(=O)N2CCc2cccs2)cc1` (stereo unspecified), for which the activation was inactive: -7.45%.

`O=C(COc1ccccc1F)Nc1ccc2nc(SCCOc3ccccc3)sc2c1`: the activation is active: 98.9%.

On to `O=C(NC1CC(=O)N(c2ccc(F)cc2)C1)c1ccc(S(=O)(=O)N2CCCCC2)cc1` (stereo unspecified), for which the activation was inactive: -6.63%.

As to `O=c1c2sc3ccccc3c2n(Cc2cccc(F)c2)c(=O)n1Cc1ccccc1`, the activation was inactive: -8.09%.

With `CCOC(=O)Cn1c(=O)n(CC2CCCO2)c2nc(-c3ccccc3OC)nc(C(N)=O)c21` (stereo unspecified), the activation is inactive: -13.6%.

As for `Cc1ccc2c(c1Br)C(O)(CC(=O)c1ccc(F)cc1)C(=O)N2` (stereo unspecified), the activation was inactive: -2.05%.

Regarding `O=C(NCc1cccs1)c1ccc2c(=O)n3nc(Nc4ccccc4)sc3nc2c1`, the activation was inactive: -8.67%.

Regarding `Cc1cccc2sc(N(Cc3cccnc3)C(=O)CCc3ccccc3)nc12`, the activation was inactive: -24.4%.

On to `CCOC(=O)c1ccc(N2C(=O)c3[nH]nc(-c4ccccc4)c3C2c2ccc(CC)cc2)cc1` (stereo unspecified), for which the activation is inactive: -25.1%.

Consider `COc1ccccc1CNC(=O)C1CCCN(S(=O)(=O)c2ccc3c(c2)oc(=O)n3C)C1` (stereo unspecified), for which the activation was inactive: 4.9%.

`COc1ccc(-c2cc(C(=O)Nc3c(C(=O)c4ccc(C)cc4)oc4ccccc34)no2)cc1`: the activation is inactive: -5.97%.

Consider `O=C(c1ccc2c(c1)N(Cc1ccccc1F)C(=O)c1ccccc1S2(=O)=O)N1CCC(Cc2ccccc2)CC1`, for which the activation is inactive: -2.52%.

For the compound `O=C(Cn1c(=O)n(Cc2nc(-c3ccccc3)no2)c(=O)c2ccccc21)Nc1cccc(C(F)(F)F)c1`, the activation is inactive: 2.52%.

As for `CCOc1ccccc1C(=O)N(Cc1ccco1)Cc1ccco1`, the activation is inactive: -19.6%.

For the compound `Cc1c(Cl)cccc1NC(=O)CC1Oc2ccccc2NC1=O` (stereo unspecified), the activation was inactive: -0.625%.

On to `CC1C(=O)Nc2ccc(S(=O)(=O)N3CCCCC3)cc2NC1=O` (stereo unspecified), for which the activation is inactive: -11.8%.

As to `O=C(CCCn1c(=O)c2cccn2c2ccccc21)Nc1cc(C(F)(F)F)ccc1Cl`, the activation is inactive: -16.3%.

With `CCC(CC)C(=O)OCc1cc(=O)n2nc(C3CC3)sc2n1`, the activation was inactive: 21.6%.

With `CC1=C(c2ccc(Cl)cc2)S(=O)(=O)NC1=NCCCN1CCN(c2cc(C)ccc2C)CC1`, the activation is inactive: 0.251%.

Turning to `CCOc1ccc(NCc2cccn2-c2nnc(N3CCC(C(=O)NCC(C)c4ccccc4)CC3)s2)cc1` (stereo unspecified), the activation was inactive: -29%.

With `CCOc1ccccc1NC(=O)CN1C(=O)COc2ccc(S(=O)(=O)N3CCOCC3)cc21`, the activation is inactive: -20.2%.

Turning to `CCOC(=O)c1cc(-c2ccc(OC)cc2)n(CCC(=O)Nc2ccccc2OC)c1C`, the activation is inactive: -16.8%.

Take `O=C(CSc1nccn1Cc1ccccc1)NCc1ccco1`: the activation was inactive: -9.55%.

On to `COc1ccc(Cn2c(CCC(=O)Nc3cc(OC)c(OC)c(OC)c3)nc3cccnc32)cc1`, for which the activation is inactive: -15.1%.

On to `CCN(c1ccccc1)S(=O)(=O)c1ccc(NC(=O)c2nc(SC)ncc2Cl)cc1`, for which the activation is inactive: -26.6%.

For `COc1ccc(OC)c(NC(=O)CSc2ccc(-c3cccs3)nn2)c1`, the activation is inactive: 9.95%.

In the case of `COc1cc(OC)c(NC(=O)C2CCN(S(=O)(=O)c3c(C)noc3/C=C/c3c(C)cc(C)cc3C)CC2)cc1Cl`, the activation is inactive: -0.242%.

As to `Cc1ccc(Cn2c(C(=O)O)c(CNCc3ccc(OC(C)C)cc3)c3ccc(C)cc32)cc1`, the activation is inactive: 41.8%.

Regarding `COc1cccc(-n2c(=O)c3c(C)c(C)sc3n(CC(=O)NCCc3ccc(OC)c(OC)c3)c2=O)c1`, the activation was inactive: -0.486%.

Regarding `COc1cccc(CNC(=O)c2cc(C)nc3c2c(C)nn3-c2ccc(C)cc2)c1`, the activation is inactive: -16.4%.

Regarding `COc1cccc(OCc2nc3ccccc3n2CCOc2ccc(C)cc2)c1`, the activation is inactive: -20.6%.

In the case of `CN(Cc1ccccc1)C(=O)c1cn(C)c2ccc(S(=O)(=O)N3CCCCC3)cc2c1=O`, the activation is inactive: 13.1%.

As for `COc1ccc2[nH]cc(CCNC(C)=O)c2c1`, the activation was inactive: -1.89% and inactive: 2.39%.

In the case of `CCn1c(C(=O)NCc2ccc(F)cc2)cc2oc3ccccc3c21`, the activation was inactive: -7.48%.

Take `Cn1c(=O)oc2cc(S(=O)(=O)NC(Cc3ccccc3)C(=O)Nc3ccc(F)cc3)ccc21` (stereo unspecified): the activation was inactive: -6.42%.

For `CCOC(=O)c1c(NC(=O)C(C)Sc2cn(CCNC(=O)c3c(F)cccc3F)c3ccccc23)sc2c1CCC2` (stereo unspecified), the activation was inactive: -4.01%.

Take `CC12CN3CC(c4ccccc4)(CN(C1)C3c1ccc(O)cc1)C2=O` (stereo unspecified): the activation is inactive: 8.48%.

Consider `Cc1ccc(-c2cc(C(=O)Nc3cc([N+](=O)[O-])ccc3C)no2)cc1F`, for which the activation was inactive: -4.52%.

Turning to `COC(=O)c1c(NC(=O)C(C)Oc2ccc(Cl)c(C)c2)sc(C)c1C` (stereo unspecified), the activation was inactive: -11.1%.

Consider `COc1ccc(OC)c(NS(=O)(=O)c2cc3c(cc2Cl)N(C(C)=O)CCO3)c1`, for which the activation was inactive: -0.332%.

Turning to `CCOc1ccc(NC(=O)CC2C(=O)N(c3ccc(F)cc3)C(=O)N2Cc2ccc(OC)c(OC)c2)cc1` (stereo unspecified), the activation was inactive: -10.3%.

Regarding `Cc1ccc(Sc2c(C)nn(-c3ccccc3)c2OC(=O)C(C)(C)C)cc1`, the activation was inactive: 10.5%.

For `COc1ccc(OC)c(CCNC(=O)CS(=O)(=O)Cc2nc(-c3cccc(Cl)c3)oc2C)c1`, the activation is active: 88%.

As to `CCOC(=O)c1ccc(N2C(=O)c3n[nH]c(-c4cccs4)c3C2c2ccc(OCC)cc2)cc1` (stereo unspecified), the activation is inactive: -19%.

Take `COc1ccc(CCNc2oc(/C=C/c3cc(OC)c(OC)c(OC)c3)nc2C#N)cc1OC`: the activation is inactive: -18.7%.

In the case of `COc1ccccc1NC(=O)CSc1nnc(N)s1`, the activation was inactive: 24.7%.

Take `Cc1ccc(C)c2sc(NC(=O)c3ccc(S(=O)(=O)N4CCC(C)CC4)cc3)nc12`: the activation is inactive: -1.42%.

In the case of `O=C(CSc1nc2cc(C(=O)NC3CCCC3)ccc2c(=O)n1CC1CCCO1)c1cccc(Cl)c1` (stereo unspecified), the activation was inactive: 9.96%.

For the origin of these results see PubChem BioAssay AID1346428 (National Center for Advancing Translational Sciences (NCATS), 2018).
